Source: patent publication US20090252749A1 (published 2009)

B1: Protein A eluate of the CTLA4-Ig HIC cleaning peak (Fc fusion)
chain: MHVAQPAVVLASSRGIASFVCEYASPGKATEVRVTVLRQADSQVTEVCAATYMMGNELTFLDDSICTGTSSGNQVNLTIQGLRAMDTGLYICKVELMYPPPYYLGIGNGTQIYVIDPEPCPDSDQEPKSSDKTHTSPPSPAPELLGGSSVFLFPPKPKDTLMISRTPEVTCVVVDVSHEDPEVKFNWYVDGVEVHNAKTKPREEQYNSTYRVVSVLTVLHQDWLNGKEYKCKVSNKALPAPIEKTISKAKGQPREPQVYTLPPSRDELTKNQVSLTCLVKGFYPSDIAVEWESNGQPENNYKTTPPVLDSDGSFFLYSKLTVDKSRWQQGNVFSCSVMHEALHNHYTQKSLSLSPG
modifications: glycosylated
notes: A mixture of all CTLA4-Ig species (dimer, tetramer, hexamer, multimer), so no single copy number applies
B2: CTLA4-Ig tetramer (Fc fusion)
chain: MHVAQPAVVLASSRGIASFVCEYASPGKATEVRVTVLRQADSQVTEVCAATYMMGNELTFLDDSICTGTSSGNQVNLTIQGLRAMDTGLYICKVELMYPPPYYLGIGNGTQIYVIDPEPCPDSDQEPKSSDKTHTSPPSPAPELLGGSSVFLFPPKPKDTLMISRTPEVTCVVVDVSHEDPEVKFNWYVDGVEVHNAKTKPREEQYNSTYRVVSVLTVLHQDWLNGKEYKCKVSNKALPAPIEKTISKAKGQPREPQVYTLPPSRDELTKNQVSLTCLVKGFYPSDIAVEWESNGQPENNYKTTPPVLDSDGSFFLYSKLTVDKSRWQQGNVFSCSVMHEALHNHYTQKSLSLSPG
modifications: glycosylated; less sialylated than the dimer
notes: Two covalent dimers associated non-covalently; Purified from the HIC cleaning peak by Protein A chromatography and preparative SEC; also called purified tetramer

Tests used:
B7-1Ig [1] = target: T1, B7-1Ig (UniProt P33681 35-242, limits assumed); experiment: SPR (Biacore) kinetics; low-density B7-1Ig chip (694 RU); samples 75-200 nM
T1 construct: Immobilised by amine coupling on a CM5 sensor chip; also called B7Ig; CD80-Ig; not shown: immunoglobulin portion of the fusion
T1 sequence (looked up): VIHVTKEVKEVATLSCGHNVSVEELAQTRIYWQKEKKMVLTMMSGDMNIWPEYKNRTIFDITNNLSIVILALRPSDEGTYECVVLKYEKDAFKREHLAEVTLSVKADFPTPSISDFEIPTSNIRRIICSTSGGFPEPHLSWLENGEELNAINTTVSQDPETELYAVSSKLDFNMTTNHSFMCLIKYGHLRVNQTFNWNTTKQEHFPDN
Description: In Table 11, sample concentrations of 75-200 nM were tested on B7-1Ig chip (694 RU).

B7-1Ig [2] = target: T1, B7-1Ig; experiment: SPR (Biacore), mass transfer limited, high-density B7-1Ig chip
Description: The invention provides methods for evaluation of CTLA4-Ig dimer and tetramer binding to B7-1Ig. Physical characteristics (e.g. diffusion coefficient, molecular weight, binding valency) and instrument operational parameters (e.g. flow rate, chip density) can influence the Biacore assay results. Under mass transfer limitation; the binding rate of tetramer is approximately 20% slower than dimer for the same molar concentration. At a specified flow rate, it is possible that tetramer molecules penetrated the matrix less efficiently compared to the dimer. […] Molar concentrations of tetramer can be calculated based on a dimer standard curve.
Binding of CTLA4-Ig dimer and tetramer to B7-1Ig using surface plasmon resonance: Concentration Analyses: Concentration analyses of the various CTLA4-Ig species to B7-1Ig were performed on a Biacore 3000 instrument (Biacore, Piscataway, N.J.) according to Method 7441-4² with minor modifications. […]
A CM5 sensor chip was immobilized with B7-1Ig at a concentration of 20 μg/mL in acetate buffer, pH 5.0, aiming for a target density of 6000-12000 resonance unit (RU). […] Test samples, consisting of either monomer or dimer, were diluted to a target concentration of −2000 ng/mL and analyzed on the Biacore. Concentrations were determined by the BIAevaluation software (version 4.0.1) using standard curves of either CTLA4-Ig material (>98% monomer) or purified dimer.

Binder	koff (B7-1Ig [1]) [s⁻¹]	kon (B7-1Ig [1]) [M⁻¹ s⁻¹]	initial binding rate relative to CTLA4-Ig dimer (B7-1Ig [2]) [fold]
B1	0.00973	377000	–
B2	–	–	~0.8
